Laboratory results: the supplement of paper PMC4604168 (melanoma cell lines)
The list shows a part of the results. Repeats are few or missing, and single values can be far off.

What follows are molecules tested on 501Mel (assay: cell count relative to DMSO control; melanoma cells; higher = more viable cells). Conditions: library dose: standard library concentration; 72 h.
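Note: cells treated in 1,536-well plates, then fixed and DAPI-stained, with nuclei counted from automated high-throughput microscope images.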

Question: Which cell count does the source give for O=C(O)c1ccc(-c2c[nH]c3ncc(-c4ccccc4)cc23)cc1C1CCCC1 + O=S(=O)(c1ccccc1)N(CC(F)(F)F)c1ccc(C(O)(C(F)(F)F)C(F)(F)F)cc1 [T0901317] (first compound 0.8 µM, partner dose 7 µM) here?
Answer: 86.6%

Question: How did the cell count turn out when O=c1[nH]nc(Sc2ncc([N+](=O)[O-])s2)n1-c1ccc2c(c1)OCCO2 + COc1ccc(-c2ccc3c(N4CCOCC4)nc(N4C[C@@H](C)O[C@@H](C)C4)nc3n2)cc1CO [KU0063794] (first compound 1 µM, partner dose 0.1 µM) was run?
Answer: 118%

Question: Which cell count does the source give for C[C@@H]1CCN(C(=O)CC#N)C[C@@H]1N(C)c1ncnc2[nH]ccc12 + O=C(Nc1ccccc1)c1cc([N+](=O)[O-])ccc1Cl [GW9662] (first compound 5 µM, partner dose 10 µM) here?
Answer: 90.4%

Question: With C[C@@H]1CCN(C(=O)CC#N)C[C@@H]1N(C)c1ncnc2[nH]ccc12 + COc1cc2ncnc(Nc3ccc(Oc4ccccc4)cc3)c2cc1OC [SrcI1] (first compound 5 µM, partner dose 10 µM) as the molecule, how does the cell count read?
Answer: 92.8%

Question: For O=C(O)c1ccc(-c2c[nH]c3ncc(-c4ccccc4)cc23)cc1C1CCCC1 + COc1ccc(COc2ccc(Cc3cnc(N)nc3N)cc2OC)cc1 [GW2580] (first compound 0.8 µM, partner dose 5 µM), which cell count is on record?
Answer: 72.3%

Question: For Cn1cncc1[C@@](N)(c1ccc(Cl)cc1)c1ccc2c(c1)c(-c1cccc(Cl)c1)cc(=O)n2C [tipifarnib] + COC(=O)c1sccc1S(=O)(=O)Nc1ccc(Nc2ccccc2)cc1OC [GSK0660] (first compound 0.05 µM, partner dose 5 µM), which cell count is on record?
Answer: 92.9%
